First the molecules themselves.
B1: DAP, P51397 (protein)
chain: MSSPPEGKLETKAGHPPAVKAGGMRIVQKHPHTGDTKEEKDKDDQEWESPSPPKPTVFISGVIARGDKDFPPAAAQVAHQKPHASMDKHPSPRTQHIQQPRK
B2: ZCCHC11, Q5TAX3 (protein)
chain: MEESKTLKSENHEPKKNVICEESKAVQVIGNQTLKARNDKSVKEIENSSPNRNSSKKNKQNDICIEKTEVKSCKVNAANLPGPKDLGLVLRDQSHCKAKKFPNSPVKAEKATISQAKSEKATSLQAKAEKSPKSPNSVKAEKASSYQMKSEKVPSSPAEAEKGPSLLLKDMRQKTELQQIGKKIPSSFTSVDKVNIEAVGGEKCALQNSPRSQKQQTCTDNTGDSDDSASGIEDVSDDLSKMKNDESNKENSSEMDYLENATVIDESALTPEQRLGLKQAEERLERDHIFRLEKRSPEYTNCRYLCKLCLIHIENIQGAHKHIKEKRHKKNILEKQEESELRSLPPPSPAHLAALSVAVIELAKEHGITDDDLRVRQEIVEEMSKVITTFLPECSLRLYGSSLTRFALKSSDVNIDIKFPPKMNHPDLLIKVLGILKKNVLYVDVESDFHAKVPVVVCRDRKSGLLCRVSAGNDMACLTTDLLTALGKIEPVFIPLVLAFRYWAKLCYIDSQTDGGIPSYCFALMVMFFLQQRKPPLLPCLLGSWIEGFDPKRMDDFQLKGIVEEKFVKWECNSSSATEKNSIAEENKAKADQPKDDTKKTETDNQSNAMKEKHGKSPLALETPNRVSLGQLWLELLKFYTLDFALEEYVICVRIQDILTRENKNWPKRRIAIEDPFSVKRNVARSLNSQLVYEYVVERFRAAYRYFACPQTKGGNKSTVDFKKREKGKISNKKPVKSNNMATNGCILLGETTEKINAEREQPVQCDEMDCTSQRCIIDNNNLLVNELDFADHGQDSSSLSTSKSSEIEPKLDKKQDDLAPSETCLKKELSQCNCIDLSKSPDPDKSTGTDCRSNLETESSHQSVCTDTSATSCNCKATEDASDLNDDDNLPTQELYYVFDKFILTSGKPPTIVCSICKKDGHSKNDCPEDFRKIDLKPLPPMTNRFREILDLVCKRCFDELSPPCSEQHNREQILIGLEKFIQKEYDEKARLCLFGSSKNGFGFRDSDLDICMTLEGHENAEKLNCKEIIENLAKILKRHPGLRNILPITTAKVPIVKFEHRRSGLEGDISLYNTLAQHNTRMLATYAAIDPRVQYLGYTMKVFAKRCDIGDASRGSLSSYAYILMVLYFLQQRKPPVIPVLQEIFDGKQIPQRMVDGWNAFFFDKTEELKKRLPSLGKNTESLGELWLGLLRFYTEEFDFKEYVISIRQKKLLTTFEKQWTSKCIAIEDPFDLNHNLGAGVSRKMTNFIMKAFINGRKLFGTPFYPLIGREAEYFFDSRVLTDGELAPNDRCCRVCGKIGHYMKDCPKRKSLLFRLKKKDSEEEKEGNEEEKDSRDVLDPRDLHDTRDFRDPRDLRCFICGDAGHVRRECPEVKLARQRNSSVAAAQLVRNLVNAQQVAGSAQQQGDQSIRTRQSSECSESPSYSPQPQPFPQNSSQSAAITQPSSQPGSQPKLGPPQQGAQPPHQVQMPLYNFPQSPPAQYSPMHNMGLLPMHPLQIPAPSWPIHGPVIHSAPGSAPSNIGLNDPSIIFAQPAARPVAIPNTSHDGHWPRTVAPNSLVNSGAVGNSEPGFRGLTPPIPWEHAPRPHFPLVPASWPYGLHQNFMHQGNARFQPNKPFYTQDRCATRRCRERCPHPPRGNVSE
B3: NR6A1, Q15406 (protein)
chain: MERDEPPPSGGGGGGGSAGFLEPPAALPPPPRNGFCQDELAELDPGTISVSDDRAEQRTCLICGDRATGLHYGIISCEGCKGFFKRSICNKRVYRCSRDKNCVMSRKQRNRCQYCRLLKCLQMGMNRKAIREDGMPGGRNKSIGPVQISEEEIERIMSGQEFEEEANHWSNHGDSDHSSPGNRASESNQPSPGSTLSSSRSVELNGFMAFREQYMGMSVPPHYQYIPHLFSYSGHSPLLPQQARSLDPQSYSLIHQLLSAEDLEPLGTPMLIEDGYAVTQAELFALLCRLADELLFRQIAWIKKLPFFCELSIKDYTCLLSSTWQELILLSSLTVYSKQIFGELADVTAKYSPSDEELHRFSDEGMEVIERLIYLYHKFHQLKVSNEEYACMKAINFLNQDIRGLTSASQLEQLNKRYWYICQDFTEYKYTHQPNRFPDLMMCLPEIRYIAGKMVNVPLEQLPLLFKVVLHSCKTSVGKE
B4: ZKSCAN4, Q969J2 (protein)
chain: MAREPRKNAALDAQSAEDQTGLLTVKVEKEEASALTAEVRAPCSPARGPERSRQRFRGFRYPEAAGPREALSRLRELCGQWLQPEMHSKEQILELLVLEQFLTILPGNLQSWVREQHPESGEEVVVLLEYLERQLDEPAPQVPVGDQGQELLCCKMALLTQTQGSQSSQCQPMKALFKHESLGSQPLHDRVLQVPGLAQGGCCREDAMVASRLTPGSQGLLKMEDVALTLTPGWTQLDSSQVNLYRDEKQENHSSLVSLGGEIQTKSRDLPPVKKLPEKEHGKICHLREDIAQIPTHAEAGEQEGRLQRKQKNAIGSRRHYCHECGKSFAQSSGLTKHRRIHTGEKPYECEDCGKTFIGSSALVIHQRVHTGEKPYECEECGKVFSHSSNLIKHQRTHTGEKPYECDDCGKTFSQSCSLLEHHKIHTGEKPYQCNMCGKAFRRNSHLLRHQRIHGDKNVQNPEHGESWESQGRTESQWENTEAPVSYKCNECERSFTRNRSLIEHQKIHTGEKPYQCDTCGKGFTRTSYLVQHQRSHVGKKTLSQ
B5: ZNF484, Q5JVG2 (protein)
chain: MTKSLESVSFKDVTVDFSRDEWQQLDLAQKSLYREVMLENYFNLISVGCQVPKPEVIFSLEQEEPCMLDGEIPSQSRPDGDIGFGPLQQRMSEEVSFQSEININLFTRDDPYSILEELWKDDEHTRKCGENQNKPLSRVVFINKKTLANDSIFEYKDIGEIVHVNTHLVSSRKRPHNCNSCGKNLEPIITLYNRNNATENSDKTIGDGDIFTHLNSHTEVTACECNQCGKPLHHKQALIQQQKIHTRESLYLFSDYVNVFSPKSHAFAHESICAEEKQHECHECEAVFTQKSQLDGSQRVYAGICTEYEKDFSLKSNRQKTPYEGNYYKCSDYGRAFIQKSDLFRCQRIHSGEKPYEYSECEKNLPQNSNLNIHKKIHTGGKHFECTECGKAFTRKSTLSMHQKIHTGEKPYVCTECGKAFIRKSHFITHERIHTGEKPYECSDCGKSFIKKSQLHVHQRIHTGENPFICSECGKVFTHKTNLIIHQKIHTGERPYICTVCGKAFTDRSNLIKHQKIHTGEKPYKCSDCGKSFTWKSRLRIHQKCHTGERHYECSECGKAFIQKSTLSMHQRIHRGEKPYVCTECGKAFFHKSHFITHERIHTGEKPYECSICGKSFTKKSQLHVHQQIHTGEKPYRCAECGKAFTDRSNLFTHQKIHTGEKPYKCSDCGKAFTRKSGLHIHQQSHTGERHYECSECGKAFARKSTLIMHQRIHTGEKPYICNECGKSFIQKSHLNRHRRIHTGEKPYECSDCGKSFIKKSQLHEHHRIHTGEKPYICAECGKAFTIRSNLIKHQKIHTKQKPYKCSDLGKALNWKPQLSMPQKSDNGEVECSMPQLWCGDSEGDQGQLSSI
B6: ZNF280B, Q86YH2 (protein)
chain: MEQSCEEEKEPEPQKNIQETKQVDDEDAELIFVGVEHVNEDAELIFVGVTSNSKPVVSNILNRVTPGSWSRRKKYDHLRKDTARKLQPKSHETVTSEAVTVLPASQLESRSTDSPIIIEPLSKPDYRNSSPQVVPNNSSELPSPLITFTDSLHHPVSTALSVGGINESPRVSKQLSTFEVNSINPKRAKLRDGIIEGNSSASFPSDTFHTMNTQQSTPSNNVHTSLSHVQNGAPFPAAFPKDNIHFKPINTNLDRANELAKTDILSLTSQNKTFDPKKENPIVLLSDFYYGQHKGEGQPEQKTHTTFKCLSCVKVLKNVKFMNHVKHHLEFEKQRNDSWENHTTCQHCHRQFPTPFQLQCHIENVHTAQEPSTVCKICELSFETDQVLLQHMKDHHKPGEMPYVCQVCHYRSSVFADVETHFRTCHENTKNLLCPFCLKIFKTATPYMCHYRGHWGKSAHQCSKCRLQFLTFKEKMEHKTQCHQMFKKPKQLEGLPPETKVTIQVSLEPLQPGSVDVASITVSTSDSEPSLPRSKSKISKKSH
B7: OVOL1, O14753 (protein)
chain: MPRAFLVKKPCVSTCKRNWSELPDEERGEIYVPVSLGFCPPQPYREPEPSVAEPPSCPLALNMSLRDSSYSMAPGPCVVAQLPSEDMGHLTDPQSRDHGFLRTKMKVTLGDSPSGDLFTCRVCQKAFTYQRMLNRHMKCHNDVKRHLCTYCGKGFNDTFDLKRHVRTHTGVRPYKCSLCDKAFTQRCSLESHLKKIHGVQQKYAYKERRAKLYVCEECGCTSESQEGHVLHLKEHHPDSPLLRKTSKKVAVALQNTVTSLLQGSPHL
B8: SUFU, Q9UMX1 (protein)
chain: MAELRPSGAPGPTAPPAPGPTAPPAFASLFPPGLHAIYGECRRLYPDQPNPLQVTAIVKYWLGGPDPLDYVSMYRNVGSPSANIPEHWHYISFGLSDLYGDNRVHEFTGTDGPSGFGFELTFRLKRETGESAPPTWPAELMQGLARYVFQSENTFCSGDHVSWHSPLDNSESRIQHMLLTEDPQMQPVQTPFGVVTFLQIVGVCTEELHSAQQWNGQGILELLRTVPIAGGPWLITDMRRGETIFEIDPHLQERVDKGIETDGSNLSGVSAKCAWDDLSRPPEDDEDSRSICIGTQPRRLSGKDTEQIRETLRRGLEINSKPVLPPINPQRQNGLAHDRAPSRKDSLESDSSTAIIPHELIRTRQLESVHLKFNQESGALIPLCLRGRLLHGRHFTYKSITGDMAITFVSTGVEGAFATEEHPYAAHGPWLQILLTEEFVEKMLEDLEDLTSPEEFKLPKEYSWPEKKLKVSILPDVVFDSPLH

Some of the results follow. Binding of human transcription factors and regulators to the viral nucleoprotein by AlphaScreen, crude cell-free proteins, amounts not normalised, one pass. Fold of the Venus control; higher = more signal. No active / inactive call. Single-pass screen; sequences are the whole Swiss-Prot entries looked up by name.

In the assay the target is nucleoprotein N of Crimean-Congo hemorrhagic fever virus. As to the kind of experiment: AlphaScreen luminescence signal relative to Venus negative control (fold); higher = stronger binding to CCHFV N. As for the experimental part:
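AlphaScreen binding of cell-free made, FLAG-GST-tagged human transcription factors and regulators (crude translation products) to biotinylated N protein; signal as fold of the FLAG-GST-Venus control. One pass.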
Consider B1, for which the AlphaScreen luminescence signal turned out to be 1.53.

With B2, the AlphaScreen luminescence signal stood at 1.12.

As for B3, the AlphaScreen luminescence signal came out at 2.47.

Molecule B4 showed an AlphaScreen luminescence signal of 2.05.

For B5, the AlphaScreen luminescence signal was 3.3.

B6 registered an AlphaScreen luminescence signal of 2.37.

Regarding B7, the AlphaScreen luminescence signal came out at 2.

B8 displayed an AlphaScreen luminescence signal of 2.23.

The record behind these values is the supplement of paper PMC12423691.
